One assay has as its system TaFdcV. Nature of the assay: Cycloadduct formation with TaFdcV followed by UV-Vis spectroscopy. As to conditions: UV-Vis spectrum before and after a desalting step. In kind it is binding, Trichoderma atroviride.
The next assay concerns TaFdc. Nature of the assay: Adduct formation with TaFdc wild-type followed by UV-Vis spectroscopy. The conditions noted are these: UV-Vis spectrum before and after a desalting step. The protocol: Incubation of 80 µmol TaFdcV with 10 mM 3-methylcrotonic acid led to a complete shift in the corresponding UV-Vis spectrum.
In order to assess the scope for activity with acrylic acids lacking extended conjugation, TaFdc and TaFdcV were incubated with trans-2-pentenoic and trans-2-hexenoic acid, compounds that have previously been reported to undergo some AnFdc-mediated decarboxylation.

SMILES strings stand for the structures.

As to `CC(C)=CC(=O)O` [3-methylcrotonic acid], the “adduct formation / binding, reversibility after desalting” value in the assay on TaFdcV is “long-lived, inhibitory covalent complex with 3-methylcrotonic acid is not formed”; in the assay on TaFdc, “long-lived, inhibitory covalent complex with 3-methylcrotonic acid is not formed”.

These data come from EP4144838A1, “ORGANISMS PRODUCING LESS CROTONIC ACID” (Global Bioenergies, priority 2021, dated 2023).
